# Measurements reported in PubChem BioAssay AID720542 (National Center for Advancing Translational Sciences (NCATS), 2013).
# The whole screen tested about 360,000 compounds, of which about 740 (0.21%) were called active. The shares of active, inactive and inconclusive entries below differ from those in the screen. Calls come from the whole dose curve; as a rule, active = well fitted inhibition curve with a large enough effect; inconclusive = small, poorly fitted or top-dose-only effect; inactive = no such curve, though single readings can be large or run the other way. Potencies of inconclusive entries are left out as doubtful fits.
# Tested on: Plasmodium falciparum AMA1 (3D7) - RON2 peptide interaction
# Test: qHTS for Inhibitors of AMA1-RON; Towards Development of Antimalarial Drug Lead: Primary Screen; note: nearly all actives have a fitted effect of over 45% in size;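 for activity change, negative = inhibition: 0% = vehicle wells and -100% = peptide control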
# Settings: AlphaScreen AMA1-biotinylated RON2 peptide binding; activity change, negative = inhibition: at 58.2 µM (top of the series) unless noted
# Description: Plasmodium, the causative agent of malaria, is one of the world's deadliest parasitic diseases. Currently there is no vaccine available and there is widespread resistance to common anti-malarial drugs. This warrants novel, alternative approaches for developing improved therapy. During infection, one such essential interaction is between two parasite proteins, the apical membrane antigen1 (AMA1) that is translocated onto the merozoite surface and the rhoptry neck protein 2 (RON2), which is transferred to the red blood cells (RBC) membrane during invasion (Besteiro et.al., 2009). Recently, the Miller lab has shown that the interaction between AMA1 and RON2 is essential for junction formation of the parasite with the host cell (Srinivasan et.al., 2011). The binding of the RON2 peptide to the hydrophobic pocket in AMA triggers the formation of the moving junction which provides a firm anchor for the parasite to pull itself into the RBC using its actin-myosin motor; an irreversible step that commits the parasite for invasion. Only one AMA1 and RON2 genes exists in Plasmodium and there are no alternate pathways. Moreover, the region corresponding to RON2 peptide is conserved in all P. falciparum isolates for which sequences are available. The key residues in the AMA1 hydrophobic pocket that binds RON2 are also conserved and indicate a functional constraint governing this essential step in invasion since a short RON2 peptide (RON2L) corresponding to the binding region on AMA1 is sufficient to compete with the native RON2 protein and inhibits invasion (Tonkin et.al, 2011). Therefore, developing small molecule inhibitors of this interaction offers a promising target opening a new arena for anti-malarial therapeutics drug design.
# In collaboration with the Miller lab, a quantitative High Throughput Screen using the AlphScreen technology was developed using a recombinant his-tagged AMA1 and a biotinylated RON2 peptide. This fluorescent screen was assayed against the NIH Molecular Libraries Small Molecule Repository (MLSMR). Inhibition of this protein-protein interaction is the desired outcome of this assay. However, due the limitations of this AlphaScreen assay, a large number of artifacts were observed. An AlphaScreen counterscreen was run to identify the true inhibitors, triage compound activity, and weed out false positives.
# NIH Chemical Genomics Center [NCGC]
# NIH Molecular Libraries Probe Centers Network [MLPCN]
# Assay Submitter (PI): Louis Miller, National Institute of Allergy and Infectious Disease (NIAID)
# Two microliters of his-tagged AMA1 3D7 allele protein (final concentration 25 nM) was dispensed into a 1,536-well assay plate. Small molecules and positive control peptides were pin-transferred (23 nL or 46 nL) via Kalypsys pin-tool equipped with a 1,536-pin array, resulting in final compound and peptide concentration ranges of 91.5 nM - 57.2 µM, and 15.6 nM - 2.00 µM, respectively. Unlabeled RON2 peptide or R1 peptide ([…]) that specifically binds the 3D7 AMA1 was used as a positive control that inhibited the binding of RON2L to AMA1. After 15 minutes incubation, 1 uL of biotinylated RON2 peptide (final concentration 25 nM) or buffer were dispensed and the assay plate was incubated for an additional 30 minutes at room temperature and protected from light. This was followed by an addition of 1 uL mixture of donor and acceptor beads (10 ug/mL final concentrations for each). The plates were incubated for 30 min at room temperature and read using the EnVision(R) plate reader (PerkinElmer). Maximum inhibition response was normalized to the positive control signal while no inhibition response was normalized to the DMSO treated wells.
# Potency is the fitted concentration of half-maximal effect; tags give direction and shape of the fitted curve.
SMILES,Potency,"activity change, negative = inhibition"
N#CC(c1ccc(Cl)cc1)c1ccc2c(C(F)(F)F)cc(C(F)(F)F)nc2n1 (stereo not given),"inconclusive [inhibitor, partial curve]",–
CCOc1ccccc1N1CCN(Cc2ccc(OC)c(OC)c2)CC1,"inconclusive [inhibitor, single point]",–
O=C(Cn1nnc(-c2ccc(S(=O)(=O)N3CCCC3)cc2)n1)Nc1ccccc1-n1cccc1,–,inactive: -13.8%
OC(COc1cccc2ccccc12)CN1CCN(c2ccccc2)CC1 (stereo not given),"inconclusive [inhibitor, partial curve]",–
CCc1ccc(NCc2ccc(OC)c(Cn3ccnc3)c2)cc1,"inconclusive [inhibitor, single point]",–
COc1ccc(/C=C/C(=O)NC(=S)NNC(=O)c2cccs2)cc1OC,–,inactive: 62.1%
CC(=O)N1CCc2cc(S(=O)(=O)NCC(=O)NCc3ccccc3Cl)ccc21,–,inactive: -9.12%
CCOc1ccc(CN2CCN(C(=O)Cc3ccccc3)CC2)cc1,"inconclusive [inhibitor, single point]",–
CCc1ccc(NC(=O)c2sccc2-n2cccc2)cc1,"inconclusive [inhibitor, partial curve]",–
O=C(Nc1nc(-c2ccco2)c(-c2ccco2)s1)C1CCC1,"inconclusive [inhibitor, single point]",–
COc1ccc(N2CCN(C(=O)COC(=O)CSc3ccccc3)CC2)cc1,"inconclusive [inhibitor, partial curve]",–
CCOc1ccc(NC(=O)NCc2ccco2)cc1,–,inactive: -7.84%
C[C@@H](C(=O)Nc1nc(-c2ccccn2)cs1)N1C(=O)C2CCCCC2C1=O (stereo not given in full),"inconclusive [inhibitor, single point]",–
Cc1ccc(C)c(NC(=O)C2CCCN2S(=O)(=O)c2ccc3c(c2)n(C)c(=O)c(=O)n3C)c1 (stereo not given),–,inactive: -1.27%
CCOc1ccc2nc(N3CCCC(C(=O)N4CCN(CC)CC4)C3)sc2c1 (stereo not given),"inconclusive [inhibitor, partial curve]",–
COC(=O)CNc1nc(-c2cccnc2)nc2ccccc12,–,inactive: 15.7%
CN(C)CCCN(C(=O)c1ccc(S(=O)(=O)N2CCc3ccccc3C2)cc1)c1nc2ccc(F)cc2s1,"inconclusive [inhibitor, single point]",–
O=C(NCc1ccccn1)c1cccc(S(=O)(=O)N2CCCCC2)c1,–,inactive: 1.07%
CCc1ccccc1NC(=O)C1CCCN(c2ncccn2)C1 (stereo not given),–,inactive: -5.26%
O=C(CSc1nnc(COc2ccccc2)o1)c1ccccc1,–,inactive: 62.8%
CC(CC(=O)NCCc1ccc(F)cc1)c1ccccc1 (stereo not given),–,inactive: 11.4%
COc1cccc(OC2(C)CCN(Cc3ccc(-c4ccccn4)cc3)C2)c1 (stereo not given),"inconclusive [inhibitor, partial curve]",–
Cc1[nH]c2ccccc2c1CCN(Cc1cccnc1)C(=S)Nc1cccc(F)c1,"inconclusive [inhibitor, single point]",–

SMILES,Potency,"activity change, negative = inhibition"
CC(=O)C1=C(O)C(=O)N(Cc2cccnc2)C1c1ccc(Cl)cc1 (stereo not given),"inconclusive [inhibitor, single point]",–
Cc1cc2c(cc1S(=O)(=O)N1CCN(c3cccc(C)c3C)CC1)OCCN2C,–,inactive: -28.5%
CC1(C)CC(=O)CC2(C1)NCC(c1ccccc1Cl)c1c2[nH]c2ccccc12 (stereo not given),"inconclusive [inhibitor, partial curve, poor fit]",–
CCn1c(NC)cc(=O)n(C)c1=O,"inconclusive [inhibitor, single point]",–
COc1ccc(-c2csc3ncnc(N4CCN(c5ccccc5)CC4)c23)cc1,"inconclusive [inhibitor, partial curve]",–
COc1cc2nc(/C=C/c3ccc(N(C)C)cc3)sc2cc1SC,active: 17.8 µM,–
CCOC(=O)c1cc(-c2ccc(N3CCOCC3)cc2)nn1-c1ccccc1C(=O)O,"inconclusive [inhibitor, partial curve, poor fit]",–
COc1cc(-c2ccc3cc(OC)c(OC)c(OC)c3c2)cc(OC)c1OC,–,inactive: -8.31%
COC(=O)N/N=C\C=C\c1ccc2c(c1)OCO2,–,inactive: -7.29%
NS(=O)(=O)c1ccc(N/N=C/c2ccc(O)c(O)c2O)c([N+](=O)[O-])c1,"inconclusive [inhibitor, full curve]",–
N#Cc1c(/N=C/c2ccco2)sc2c1CCCCC2,"inconclusive [inhibitor, partial curve]",–
CCOC(=O)c1c(C)[nH]c(C(=O)COC(=O)C2(C)CC2(Cl)Cl)c1C (stereo not given),"inconclusive [inhibitor, partial curve]",–
CC(C)n1cc(C(=O)N2CCCC(N3CCN(c4ccc(F)cc4)CC3)C2)cn1 (stereo not given),–,inactive: -4.32%
COc1ccc(N2CCN(c3nc(-c4cccs4)nc4ccccc34)CC2)cc1,"inconclusive [inhibitor, partial curve]",–
CC(=O)Nc1ccc(-c2ccnc3c2CC(C)(C(=O)Nc2ccc4c(c2)OCO4)O3)cc1 (stereo not given),"inconclusive [inhibitor, partial curve]",–
O=C(CN1CCN(C2CCCCC2)CC1)Nc1ccccc1N1CCCCC1,"inconclusive [inhibitor, single point]",–
Cc1cc(-c2cc(C)c(N)c(C)c2)cc(C)c1N,"inconclusive [inhibitor, partial curve]",–
COc1ccc(/C=C2/CSC/C(=C/c3ccc(OC)c(OC)c3)C2=O)cc1OC,"inconclusive [inhibitor, single point]",–
O=C(Nc1cccc2ncccc12)c1ccc(Cl)cc1,"inconclusive [inhibitor, full curve, poor fit]",–
O=[N+]([O-])c1ccc(COc2cccc(CNc3ccc(Br)cc3)c2)cc1,"inconclusive [inhibitor, partial curve]",–
COc1ccc(NC(=O)C2CCCN(c3nccc(C)n3)C2)cc1 (stereo not given),–,inactive: -9.03%
CCOC(=O)c1cc2c(ccn2C)n1Cc1ccc(C#N)cc1,"inconclusive [inhibitor, single point]",–
